Among all 350,000 compounds or so, about 7,000 (2%) were called active. The inconclusive results got no clear call from the source; some entries with a clear call stand among them for comparison. Cut-off read from the data, not from the text of the source: active = activation above about 40%; inconclusive = no clear call, values can overlap the other calls; inactive = below that.
Assay: raisers of Bmi1 knock-in reporter signal – mouse ES cells, Bmi1 luciferase knock-in, single point, esBAF inhibitor project, primary screen (AID 602393);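 note: 0% = median of the plate's neutral control wells and 100% = double that signal; a rise in the Bmi1 reporter signal indicates esBAF inhibition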
Details: 24 h, at 12.5 µM, stronger effect = higher value, 100% = twice the neutral-well signal

SMILES | reporter increase
COc1ccccc1/C=C/c1nc(C#N)c(N(C)C)o1 | inconclusive: 45.9%
O=C(O)c1ccc2c(c1)C(=O)N(c1ccc(C(=O)OCC(=O)c3ccccc3)cc1)C2=O | inconclusive: 40.7%
COc1cn(-c2ccccc2)nc1C(=O)Nc1ccc(C)cc1 | inconclusive: 49%
Cc1cc(C)n(C(N)=NC(=O)c2ccc([N+](=O)[O-])cc2)n1 | inconclusive: 53.3%
CCOc1ccc(NC(=O)CSc2nccn2C)cc1 | inconclusive: 43.8%
COc1ccc(C(CC(=O)c2ccc(C)cc2)Sc2ccccc2N)cc1 (stereo unspecified) | active: 59.7%
Cc1ccc(NC(=O)CNC(C)c2ccccc2)cc1 (stereo unspecified) | inconclusive: 45.3%
C[C@@H]1CN([C@H](C)CO)C(=O)c2c(c3ccccc3n2C)-c2ccccc2CO[C@@H]1CN(C)C | inactive: 32%
Cc1ccc(NC(=O)C2Cc3ccccc3O/C2=N\O)cc1C (stereo unspecified) | inconclusive: 49.2%
O=C(NCCc1cccc(Cl)c1)c1cccnc1 | inconclusive: 40.7%
Cn1nccc1C(=O)Nc1sc2c(c1C(N)=O)CCCC2 | inconclusive: 32.1%
O=C(N/N=C/c1ccccc1Cl)c1cccc(F)c1 | active: 52.7%
OC(c1ccccc1)c1ncc(-c2ccccc2Cl)[nH]1 (stereo unspecified) | inconclusive: 46.6%
Cc1ccc(F)cc1C(=O)N1CCCC(c2cc(C(=O)Nc3ccccc3)no2)C1 (stereo unspecified) | inconclusive: 40.6%
O=C(CSc1ccc2ccccc2c1)NCCc1ccc(O)c(O)c1 | inactive: 1.46%
C[C@H]1CN([C@@H](C)CO)C(=O)c2cc(NC(=O)CCCN(C)C)ccc2O[C@H]1CN(C)Cc1ccc(Cl)c(Cl)c1 | inactive: -0.872%
Nc1nc(Nc2cccc(F)c2)nc2ccccc12 | inconclusive: 41.9%
C/C=C/c1ccc2c(c1)O[C@@H](CN(C)Cc1ccncc1)[C@H](C)CN([C@H](C)CO)S2(=O)=O | inactive: 0.626%
CC(C)(C)c1ccc(C(=O)NCc2ccco2)cc1 | inconclusive: 43.3%

SMILES | reporter increase
CCn1nnc(NC(=O)c2cccc(-c3cc4ccccc4oc3=O)c2)n1 | inconclusive: 43.6%
CC1=C/C(=N\NC(=S)NCCc2ccccc2)CC(C)(C)C1 | inconclusive: 51.8%
CN1C(=O)c2cc(NC(=O)C3CCCC3)ccc2OC[C@@H]2O[C@@H](CC(=O)Nc3ccccc3)CC[C@H]21 | inactive: -0.014%
CC(=O)Nc1ccc(-c2csc(Nc3cc(C)ccn3)n2)cc1 | inconclusive: 42.6%
c1ccc(-n2nnc3ccccc32)nc1 | active: 60.5%
O=C(Nc1ccc2c(c1)OCO2)NC1(C(F)(F)F)Oc2ccccc2O1 | inconclusive: 44.2%
COc1ccc(NC(=O)n2ncc3c(C)cccc32)cc1OC | active: 53%
O=C(Nc1ccc2oc(-c3ccccc3Cl)nc2c1)c1ncn[nH]1 | inconclusive: 41.4%
CC(C)(C)c1ccc(C(=O)Nc2cccc(-n3cnnn3)c2)cc1 | inconclusive: 41.1%
CN(N=Nc1cccc([N+](=O)[O-])c1)c1ccccc1 | inconclusive: 47.3%
COc1cccc(-c2cc(C(=O)N3CCc4ccccc4C3)[nH]n2)c1 | inconclusive: 42.3%
CCNC(=O)Cc1ccc(NS(=O)(=O)c2ccc(F)cc2)cc1 | inactive: 0.677%
CC1CCCN(c2ccc(C(=O)Nc3cccnc3)cc2[N+](=O)[O-])C1 (stereo unspecified) | inconclusive: 40.3%
CCCCOc1ccc(C(=O)NNC(=O)C2C3CCC(C3)C2C(=O)O)cc1 (stereo unspecified) | inconclusive: 49.8%
Cc1cccnc1Nc1nc(-c2ccc(F)cc2)cs1 | inconclusive: 35.4%
CC(/C=C/C=C/c1ccccc1)=N/NC(=O)c1ccc2c(c1)OCCO2 | inconclusive: 46.2%
Cc1cccc(C(=O)Nc2ccc(C(=O)/C=C/c3cccnc3)cc2)c1 | active: 42.3%
O=C(Cn1cnc2ccccc2c1=O)Nc1ccc2c(c1)OCO2 | active: 57.1%
Cc1cc(C)n(-c2ccc(C(=O)N3CCc4ccccc43)cc2)n1 | inconclusive: 40%

SMILES | reporter increase
Cn1c(O)c(N=Nc2ccccc2[N+](=O)[O-])c2ccccc21 | inconclusive: 57.3%
C[C@@H]1CCCCO[C@H](CN(C)C(=O)C2CCCCC2)[C@@H](C)CN([C@H](C)CO)C(=O)c2cc(NC(=O)c3ccncc3)ccc2O1 | inactive: -1.04%
CSc1nc2c(cnn2-c2ccccc2)c(=O)n1N | active: 47.7%
COc1cccc(CNC(=O)Cn2cccc2C(=O)c2ccccc2C)c1 | inconclusive: 44.8%
C[C@@H]1CN([C@@H](C)CO)C(=O)c2cc(-c3ccc(C#N)cc3)cnc2O[C@H]1CN(C)Cc1ccccn1 | inactive: -2.75%
NC(=N\N=Cc1ccco1)/C(N)=N/N=Cc1ccco1 | inconclusive: 47.6%
CCOc1ccc(NC(=O)n2ncc3c(C)cccc32)cc1 | inconclusive: 43.7%
C[C@H](CO)N1C[C@H](C)[C@H](CN(C)C(=O)CCCN(C)C)OCCCC[C@H](C)Oc2ccc(NC(=O)C3CCCCC3)cc2C1=O | inactive: -2.68%
C=CC(COCc1ccccc1)N(C(=O)OC(C)(C)C)S(=O)(=O)c1ccccc1Br (stereo unspecified) | inactive: -17.6%
COc1ccc2c(c1)nc(SCC(=O)c1cccs1)n2C | inconclusive: 66.3%
CCOC(=O)CC(=O)CSc1nc(-c2cccnc2)ccc1C#N | inconclusive: 40.3%
CC(C)C#Cc1cnc2c(c1)C(=O)N([C@H](C)CO)C[C@H](C)[C@H](CN(C)C(=O)Nc1cccc(F)c1)O2 | inactive: -17.6%
COc1ccc(CN(C)C[C@H]2Oc3c(NS(C)(=O)=O)cccc3C(=O)N([C@@H](C)CO)C[C@H]2C)cc1 | inactive: 3.05%
O=c1c2ccccc2sc2nc(C3CCCCC3)n(Cc3ccco3)c(=O)c12 | inactive: 5.04%
NC(=O)C1CCN(c2nc(-c3cc4ccccc4o3)cs2)CC1 | inconclusive: 40.2%
N#C/C(=C\c1c[nH]c2ccccc12)C(=O)NC1CC1 | active: 70.9%
Cc1ccc(C)c(NC(=O)Nc2ccc3c(c2)OCO3)c1 | inconclusive: 40.1%
O=C(COc1ccc([N+](=O)[O-])cc1)Nc1ccccc1C(=O)NC1CC1 | inactive: -1.91%
